The data scatter; read single values as rough.
assay: amyloid nucleation score relative to library mode (yeast Sup35 reporter selection) (log enrichment difference); higher = more amyloid nucleation; sequences are the first 22 residues of the Bri2 peptide extended by up to 12 random residues; conditions: random library (experiment): 1;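 active = nucleation score significantly above 0 at FDR 0.05; inactive = not significantly above 0 or absent from output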
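Note: [psi-pin-] Saccharomyces cerevisiae expressing SupN fusions, induced by 100 µM Cu2SO4, selected 7 d at 30 °C without adenine and uracil, scored by deep sequencing of output versus input.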

Sequence	amyloid nucleation score
EASNCFAIRHFENKFAVETLICVC	inactive
EASNCFAIRHFENKFAVETLICGNADEAGGRGQA	inactive
EASNCFAIRHFENKFAVETLICNLMSTSNCQLVG	inactive
EASNCFAIRHFENKFAVETLICDPTWKG	inactive
EASNCFAIRHFENKFAVETLICGSLCNDCWRHLM	inactive
EASNCFAIRHFENKFAVETLICQMLV	inactive
EASNCFAIRHFENKFAVETLICGPCAGLLPFCGI	6.53
EASNCFAIRHFENKFAVETLICRSSFRDLLADVA	inactive
EASNCFAIRHFENKFAVETLICQLWS	7.84
EASNCFAIRHFENKFAVETLICVMWHSFDSGYVR	inactive
EASNCFAIRHFENKFAVETLICLVTEQYIMSSS	3.62
EASNCFAIRHFENKFAVETLICGLNIKRQSVKWE	inactive
EASNCFAIRHFENKFAVETLICVRWGLNSRRGMR	inactive
EASNCFAIRHFENKFAVETLICAMALRVRTWLQE	inactive
EASNCFAIRHFENKFAVETLICVYSGD	5.1
EASNCFAIRHFENKFAVETLICCTFVAHQGFAQG	7.31
EASNCFAIRHFENKFAVETLICRKWCNGPTDAAG	inactive
EASNCFAIRHFENKFAVETLICRFLLSRLGQASW	-0.338
EASNCFAIRHFENKFAVETLICHLSVVSAFASMH	inactive
EASNCFAIRHFENKFAVETLICRSLIVYITLVKV	inactive
EASNCFAIRHFENKFAVETLICRYPIPLTVWVWS	inactive
EASNCFAIRHFENKFAVETLICVRGRLCGCGRPS	4.05
EASNCFAIRHFENKFAVETLICADVVCTRCTVWV	inactive

Sequence	amyloid nucleation score
EASNCFAIRHFENKFAVETLICWYLDGSVRSLMR	inactive
EASNCFAIRHFENKFAVETLICPQVWSFCTANRN	7.54
EASNCFAIRHFENKFAVETLICWDGDIFRPRGVA	inactive
EASNCFAIRHFENKFAVETLICYAY	inactive
EASNCFAIRHFENKFAVETLICGCRCG	5.95
EASNCFAIRHFENKFAVETLICRGKVPFQEFTTG	inactive
EASNCFAIRHFENKFAVETLICDWPVWR	inactive
EASNCFAIRHFENKFAVETLICCNGWFCWGGKTK	9.31
EASNCFAIRHFENKFAVETLICVPSFSSNYSRST	3.64
EASNCFAIRHFENKFAVETLICYIDGIWYRCLCA	0.369
EASNCFAIRHFENKFAVETLICDGERGG	inactive
EASNCFAIRHFENKFAVETLICFCCNGSVSSATH	9.35
EASNCFAIRHFENKFAVETLICLRCLIRSYSVYV	-0.211
EASNCFAIRHFENKFAVETLICLLTYPSVVFDRC	-0.12
EASNCFAIRHFENKFAVETLICVYLPSGDSRPVA	6.82
EASNCFAIRHFENKFAVETLICTGIAP	inactive
EASNCFAIRHFENKFAVETLICWEEGPHEWLCLG	inactive
EASNCFAIRHFENKFAVETLICCVRVLYAGCVHW	-0.673
EASNCFAIRHFENKFAVETLICATGVRTVGSALG	inactive
EASNCFAIRHFENKFAVETLICGPRLTVPGGSWW	inactive
EASNCFAIRHFENKFAVETLICRLWRDPAEEPPR	inactive
EASNCFAIRHFENKFAVETLICHVILGVEHRPYV	inactive
EASNCFAIRHFENKFAVETLICGSRGRQHVSSVR	inactive

same assay, conditions: random library (experiment): 2

Sequence	amyloid nucleation score
EASNCFAIRHFENKFAVETLICCFSKA	6.93
EASNCFAIRHFENKFAVETLICFHPIDWSAGWLG	5.77
EASNCFAIRHFENKFAVETLICVGVLNCEDWVFF	6.92
EASNCFAIRHFENKFAVETLICCWKHCVKSRWLS	-0.0583
EASNCFAIRHFENKFAVETLICWTIRRF	3.41
EASNCFAIRHFENKFAVETLICVTVNRGLVRFGC	3.41
EASNCFAIRHFENKFAVETLICWRFTYLSCSCTR	2.95
EASNCFAIRHFENKFAVETLICICTGSAYTNRTM	6.78
EASNCFAIRHFENKFAVETLICILPGSCFFWNLL	5.9
EASNCFAIRHFENKFAVETLICVSNAHVGICYMG	6.05
EASNCFAIRHFENKFAVETLICQNWGTRQYTSRD	3.97
EASNCFAIRHFENKFAVETLICFLY	3.83
EASNCFAIRHFENKFAVETLICLVFLLN	-0.0677
EASNCFAIRHFENKFAVETLICTINSLTVRMTCL	inactive
EASNCFAIRHFENKFAVETLICVFTRRHVLESIR	inactive
EASNCFAIRHFENKFAVETLICTEQLLLYCNSAF	6.3
EASNCFAIRHFENKFAVETLICRGMVCEGVGWCG	inactive

Sequence	amyloid nucleation score
EASNCFAIRHFENKFAVETLICLKWVCCISLVVP	4.51
EASNCFAIRHFENKFAVETLICLSFKYRYMLFAR	inactive
EASNCFAIRHFENKFAVETLICLYLLIDAGLVFC	inactive
EASNCFAIRHFENKFAVETLICRPACQVFLRLLR	inactive
EASNCFAIRHFENKFAVETLICYGVYHGWYKRLS	inactive
EASNCFAIRHFENKFAVETLICGLLLLCRKVSCK	0.616
EASNCFAIRHFENKFAVETLICDTRGW	inactive
EASNCFAIRHFENKFAVETLICMYEGTFSLSVLH	inactive
EASNCFAIRHFENKFAVETLICVNGA	inactive
EASNCFAIRHFENKFAVETLICMVDKLRWFYNNM	inactive
EASNCFAIRHFENKFAVETLICRRMCNPRANRHG	-0.199
EASNCFAIRHFENKFAVETLICCRERKYHPTMCL	inactive
EASNCFAIRHFENKFAVETLICWVRYSEECVSRG	inactive
EASNCFAIRHFENKFAVETLICYSGWTGYRLLWR	inactive
EASNCFAIRHFENKFAVETLICIDSCMHM	-0.0862
EASNCFAIRHFENKFAVETLICGCKRSKPSHFLG	inactive
EASNCFAIRHFENKFAVETLICVRLGRLVYPSDL	inactive

same assay, conditions: random library (experiment): 3

Sequence	amyloid nucleation score
EASNCFAIRHFENKFAVETLICPTENRWKARAVL	inactive
EASNCFAIRHFENKFAVETLICIAMVWRMNDSKT	inactive
EASNCFAIRHFENKFAVETLICMYKTWWIWRLKA	inactive
EASNCFAIRHFENKFAVETLICQSGTLFRMYSAC	inactive
EASNCFAIRHFENKFAVETLICTMKESDDSQHQR	inactive
EASNCFAIRHFENKFAVETLICDIVCGLISVISR	inactive
EASNCFAIRHFENKFAVETLICEERIATSATVCG	inactive
EASNCFAIRHFENKFAVETLICLTTKGPASSGTL	4.18
EASNCFAIRHFENKFAVETLICLCRERDCGDPLW	3.83
EASNCFAIRHFENKFAVETLICRQMRSSICGSYG	inactive
EASNCFAIRHFENKFAVETLICGVVSRRAGVTVL	inactive
EASNCFAIRHFENKFAVETLICRDERWA	inactive
EASNCFAIRHFENKFAVETLICIRVVWVRPAGEM	inactive
EASNCFAIRHFENKFAVETLICCCQSKVSVYYVR	2.66
EASNCFAIRHFENKFAVETLICGVKNSRLRHDSA	inactive
EASNCFAIRHFENKFAVETLICTLTEA	inactive
EASNCFAIRHFENKFAVETLICLRWFVHEAGEPR	inactive
EASNCFAIRHFENKFAVETLICGSEEASAQGSVY	inactive
EASNCFAIRHFENKFAVETLICPRASQRLCLHRL	inactive
EASNCFAIRHFENKFAVETLICEFQYRICSRCLM	inactive

Sequence	amyloid nucleation score
EASNCFAIRHFENKFAVETLICISRFWCWHSEAR	inactive
EASNCFAIRHFENKFAVETLICASR	inactive
EASNCFAIRHFENKFAVETLICDEARCRWKSFEA	inactive
EASNCFAIRHFENKFAVETLICWPHVCRESTRTG	inactive
EASNCFAIRHFENKFAVETLICRVNNAYCCFYGR	7.42
EASNCFAIRHFENKFAVETLICAMSLPTCLSIWC	inactive
EASNCFAIRHFENKFAVETLICAQRWPVA	inactive
EASNCFAIRHFENKFAVETLICHLRACRHLRVF	-0.127
EASNCFAIRHFENKFAVETLICNCAYHFCVSVWH	inactive
EASNCFAIRHFENKFAVETLICNVIGLNTPCCDT	7.76
EASNCFAIRHFENKFAVETLICDSALSRNGAWST	4.45
EASNCFAIRHFENKFAVETLICIAVWTAFTSVAG	inactive
EASNCFAIRHFENKFAVETLICWLRMLRYAVSWV	inactive
EASNCFAIRHFENKFAVETLICAGSCFSPLNIFG	8.78
EASNCFAIRHFENKFAVETLICGGCGAILGLVRR	4.91
EASNCFAIRHFENKFAVETLICMTLKLMLRASVC	inactive
EASNCFAIRHFENKFAVETLICLVNSLPVPVRSW	1.21
EASNCFAIRHFENKFAVETLICLGSYSAMRLFPM	-0.321
EASNCFAIRHFENKFAVETLICRGNQYWRLCRRR	-0.0441
